The other results are listed elsewhere or left out. Single values are uncertain, as repeats are few or missing.
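Also: exons read include endogenous Mef2d, Mast2, Ergic3 and Trappc9 microexons plus the longer neural-regulated Zdhhc20, Mgrn1 and Asph cassette exons, alongside the reporter microexon.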

For this test, the system named is Mef2d microexon (dual-luciferase reporter). In words: delta PSI of alternative exon relative to 0.4% DMSO control (RT-PCR) (percentage points); higher = more exon inclusion. As to conditions: concentration: not stated (optimised per compound); Neuro-2a. As to the method:
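Reads PSI of the Mef2d reporter microexon and of endogenous mouse neural alternative exons. dPSI is relative to the 0.4% DMSO control, single replicate.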
For the molecule `O=C(Nc1cccc([N+](=O)[O-])c1)C(C(=O)Nc1cccc([N+](=O)[O-])c1)C12CC3CC(CC(C3)C1)C2`, the “delta PSI of alternative exon” value was determined as 1.51.

Consider `Cc1ccc(S(=O)(=O)Nc2ccc3ncccc3c2)cc1`, for which the “delta PSI of alternative exon” value amounted to 12.6. In the case of `CN(C)S(=O)(=O)c1ccc2c(c1)/C(=C/c1cc3c([nH]1)CCCC3)C(=O)N2` it was -1.44; in that of `N#CC1(C#N)C(C#N)(C#N)C12CCCCC2`, -4.05; in that of `O=C(C=Cc1cc([N+](=O)[O-])ccc1Sc1ccc(C(F)(F)F)cn1)Nc1ccccc1`, -0.564. In the case of `CC(=O)Nc1ccc([C@H](C)C(=O)Nc2ncc(C(C)C)s2)cc1` it was -18.2.

Take `O=C(/C=C/c1ccc(CN(CCO)CCc2c[nH]c3ccccc23)cc1)NO`: the “delta PSI of alternative exon” value is 15.8. Turning to `Cc1cc(C(=O)NOCCO)c(Nc2ccc(I)cc2F)n(C)c1=O`, the “delta PSI of alternative exon” value was 5.84. For `COc1ccc(C=C2CCCc3ccccc3C2=O)cc1` the value was -4.04; for `Oc1nc2ccccc2nc1-c1c[nH]c2ccccc12`, 1.88; for `NC(=NOC(=O)c1c(F)cccc1Cl)c1ccc([N+](=O)[O-])o1`, -0.439. On to `O=C(C=C(C(=O)c1ccccc1)c1ccccc1)c1ccc2c(c1)OCCO2`, for which the “delta PSI of alternative exon” value is -2.02.

Take `Nc1ncn(C2OC(CO)C(O)C2O)c(=O)n1` (stereo not given) [Azacytidine-5]: the “delta PSI of alternative exon” value was -4.4. As to `N#CC1(C#N)C(c2ccc(Br)s2)C(C(=O)c2ccccc2)N2c3ccccc3C=CC21` (stereo not given), the “delta PSI of alternative exon” value was -5.5. With `CCCCCCc1ccccc1NC(=O)Nc1cccnc1`, the “delta PSI of alternative exon” value was -0.0418. In the case of `COc1cc(/C=C/C(=O)N2CCC=CC2=O)cc(OC)c1OC` [Piperlongumine] it was 1.36; in that of `N#Cc1c(O)nsc1Nc1ccc(Cl)cc1`, -0.236; in that of `O=c1c(Cc2ccccc2Cl)c(-c2ccccc2)oc2ccccc12`, 0.207.

Take `O=C(NCCNc1nccc(C(F)(F)F)n1)Nc1ccccc1Cl`: the “delta PSI of alternative exon” value was -34.1. In the case of `CC1(COc2ccc3c(c2)ncn3-c2ccc3cccc(N4CCC(N)CC4)c3n2)COC1` [Crenolanib] it was 4.84; in that of `N#Cc1c(-c2cccs2)oc(-n2cccc2)c1-c1cc(Br)cs1`, 3.66; in that of `C(=NNc1ccc2ccccc2n1)c1ccccn1`, 1.22.

On to `CCCCc1nc2cc(/C=C/C(=O)NO)ccc2n1CCN(CC)CC`, for which the “delta PSI of alternative exon” value turned out to be 16.3. In the case of `CCN(CC)Cc1ccc2cc(COC(=O)Nc3ccc(C(=O)NO)cc3)ccc2c1` [Givinostat] it was 11.4; in that of `Cn1ncc(C(=O)Nc2ccc(Cl)c(Cl)c2)c1[N+](=O)[O-]`, 4.34. Consider `CNC(=S)N/N=C/c1ccccc1O`, for which the “delta PSI of alternative exon” value worked out at 7.98. For the molecule `Nc1nc(Nc2ccc(S(N)(=O)=O)cc2)nn1C(=S)Nc1c(F)cccc1F` [Cdk1/2 Inhibitor III], the “delta PSI of alternative exon” value was -25.6. In the case of `O=C(NCCNc1ccc(C(F)(F)F)cn1)Nc1ccccc1Cl` it was -31.4; in that of `Nc1nc(=S)c2ncn([C@@H]3O[C@H](CO)[C@@H](O)[C@H]3O)c2[nH]1` [Thioguanosine], -17.6; in that of `CCCNC(=O)Nc1ccc(OC(F)(F)F)cc1`, 1.77. Consider `Cc1onc(-c2c(Cl)cccc2Cl)c1C(=O)SCC(=O)Nc1ccc(F)cc1`, for which the “delta PSI of alternative exon” value is -9.91. For `c1ccc(C2=Nc3ccccc3NC(c3ccccc3)C2)cc1` (stereo not given) the value was -0.674; for `COc1cc2c(cc1O)CC[C@@H]1[C@@H]2CC[C@]2(C)[C@@H](O)CC[C@@H]12` [2-Methoxyestradiol], -1.92; for `C(=C\c1ccccc1)/C(=N/Nc1ccccc1)c1ccccc1`, 1.03. As for `N#CC1=C(N)Oc2ccc3ccccc3c2C1c1cccc(F)c1` (stereo not given), the “delta PSI of alternative exon” value was -2.77. For `O=[N+]([O-])c1ccc(N2CCCN(C(=S)Nc3ccc(Cl)cc3Cl)CC2)nc1` the value was -4.65; for `N[C@@H](CSC(c1ccccc1)(c1ccccc1)c1ccccc1)C(=O)O` [S-Trityl-L-cysteine], -8.83. In the case of `N#CCc1ccc(Nc2nc(Nc3cc(C4CCC4)[nH]n3)c3ccccc3n2)cc1` it was 6.71.

For `Cn1cc(CNCC2CCN(c3ncc(C(=O)NO)cn3)CC2)c2ccccc21`, the “delta PSI of alternative exon” value was 14.2. For `CC(=O)Nc1ccc(-c2ccc(NC(C)=O)cc2)cc1`, the “delta PSI of alternative exon” value stood at 0.762.

The values are drawn from the supplement of paper PMC11283458.
